Results on 89 compounds are retold here after PubChem BioAssay AID463173 (ICCB-Longwood Screening Facility, Harvard Medical School, 2010).

Among all 52,000 compounds or so, about 1,700 (3.3%) were called active. Rule as the data show it: active = survival mostly below about 52% (no sharp cut-off); inactive = mostly above about 56%. Some of the results follow.

The assay concerns Wild type. The assay is described as follows: growth inhibition of S. aureus wild type versus tarO mutant, primary screen, teichoic acid synthesis inhibitors, RN4220, OD600 (AID 463173). The note with it: S. aureus RN4220 wild type/DeltatarO growth, OD600, 18 h, stronger effect = lower value, screened at 18.75 µg/mL (by protocol).
On to `CCN(CC)CCNC(=O)c1cn(CCOC)c(=O)c2c1c1ccccc1n2C`, for which the survival was inactive: 79%.
`COc1ccc(Nc2cc(C)c3cc(NC(=O)Cc4ccc(Cl)cc4)ccc3n2)cc1`: the survival is inactive: 101%.
The result for `Cc1ccc(Cl)cc1N1CCN(c2ncnc3c2nc2n3CCCCC2)CC1` reads inactive: 70%; that for `CCCCNC(=O)C1CCN(c2nc3ccccc3nc2C(F)(F)F)CC1`, inactive: 82%; that for `COc1ccc(Cc2nnc(NC(=O)c3cccs3)s2)cc1OC`, inactive: 92%.
For `Cc1cc(C)c(S(=O)(=O)N2CCC(N3CCN(Cc4ccccc4)C(=O)C3=O)CC2)c(C)c1`, the survival was inactive: 54%.
Consider `Cc1ccc(-n2c(SCC(=O)NC(C)(C)C)nc(O)cc2=O)cc1`, for which the survival is inactive: 101%.
For `COc1ccc2c(c1)c1c(c(=O)n(-c3ccccc3C)c(=O)n1C)n2C`, the survival was inactive: 81%.
Consider `CCN(CC)S(=O)(=O)c1cccc(C(=O)Nc2sc3c(c2C#N)CCC(C)C3)c1` (centres undefined), for which the survival was inactive: 146%.
Take `Cc1nnc(NC(=O)CSc2nccn2Cc2ccc(Cl)cc2)s1`: the survival is inactive: 118%.
`O=C(CSc1cn(CCNC(=O)c2c(F)cccc2F)c2ccccc12)Nc1ccc(F)cc1`: the survival is inactive: 134%.
`Cc1ccc(-c2c(C(=O)N3CCN(c4cc(Cl)ccc4C)CC3)oc(=O)c3ccccc23)cc1`: the survival is inactive: 77%.
As to `CCS(=O)(=O)c1ncc(Cl)c(C(=O)Nc2c(C(=O)Nc3cccc(C)c3)oc3ccccc23)n1`, the survival is inactive: 77%.
`COc1ccc(C)cc1NC(=O)c1cc2c(=O)n(Cc3cccnc3)ccc2nc1C`: the survival was inactive: 94%.
As for `Cc1nc2nc(NC(=O)CC(C)C)[nH]n2c(=O)c1Cc1ccccc1`, the survival was inactive: 110%.
`CCc1ccccc1NC(=O)Cc1ccc(NC(=O)N2CCCCc3ccccc32)cc1`: the survival was inactive: 128%.
In the case of `Nc1ccc(C(=O)N(CCO)CCO)cc1`, the survival was inactive: 98%.
As for `O=C(Nc1ccc(F)c(Cl)c1)N1CCC2(CC1)Oc1ccccc1C(=O)N2Cc1ccccc1F`, the survival was inactive: 79%.
For `COc1ccccc1N1CCN(C(CNC(=O)C(=O)NCc2ccc(F)cc2)c2cccnc2)CC1` (centres undefined), the survival is inactive: 103%.
As for `CCN(Cc1ccccc1)C(=O)c1cc2c(=O)[nH]c3ccc(C)cc3c2s1`, the survival is inactive: 72%.
With `CCc1nnc(SCC(=O)Nc2cc(OC)ccc2OC)nc1CC` the figure was inactive: 64%.
For `COC(=O)c1c(NC(=O)c2cccs2)sc2c1C(C(=O)OC)CC2` (centres undefined), the survival is inactive: 104%.
As to `Cc1cccc(Cn2c(COc3ccc(Cl)cc3)nc3ccccc32)c1`, the survival is inactive: 61%.
Take `Cc1ccc(CCNC(=O)c2cc3n(n2)CCCN(Cc2ccc(C)cc2)C3=O)cc1`: the survival is inactive: 65%.
The result for `CCOc1ccc(S(=O)(=O)N(CC(=O)NCCSc2ccc(C)cc2)c2ccccc2)cc1` reads inactive: 96%; that for `Cc1ccc(NC(=O)N2CCN(c3ccc(Cl)c(Cl)c3)CC2)cc1`, inactive: 111%.
As to `CCCCn1cc(S(=O)(=O)c2ccc(C)c(C)c2)c(=O)c2cc(F)c(N(CC)CC)cc21`, the survival is inactive: 72%.
`COc1ccc(-c2nc(CN3CCC(C(=O)NCCc4ccccc4)CC3)c(C)o2)cc1OC`: the survival is inactive: 82%.
`CCn1nc(-c2ccccc2)c(-c2ccccc2)c(C(=O)Nc2nc(C)c(C(C)=O)s2)c1=O`: the survival is inactive: 89%.
With `CCC(=O)N1CCc2cc(CNC(=O)c3ccc(OC)cc3)ccc21` the figure was inactive: 127%; with `Cn1c(=O)c(=O)n(C)c2cc(N3CCCC3)c(NC(=O)c3ccccc3F)cc21`, inactive: 93%.
For the compound `O=C(Nc1sc2c(c1C(=O)Nc1cccc(Cl)c1)CCCC2)c1cccs1`, the survival was inactive: 140%.
Regarding `Cc1ccc(NC(=O)CSc2nc(=O)n(Cc3ccco3)c3c2CCC3)cc1F`, the survival is inactive: 71%.
Turning to `CC1Cc2ccccc2N1S(=O)(=O)c1nnc(NC(=O)c2cccc(F)c2)s1` (centres undefined), the survival was active: 10%.
On to `CCC(=O)N1CCc2cc(CNC(=O)Cc3ccc(F)cc3)ccc21`, for which the survival was inactive: 82%.
`CCOc1cccc(C(=O)Nc2ccc(Cl)cn2)c1`: the survival is inactive: 97%.
For `CCOc1ccc(-c2nnc(SCC(=O)Nc3ccc(C)cc3Cl)o2)cc1`, the survival was inactive: 126%.
As to `Cc1ccc2c(c1)-c1onc(C(=O)N3CCN(c4cc(Cl)ccc4C)CC3)c1CO2`, the survival is inactive: 83%.
On to `COC(=O)c1ccccc1NC(=O)c1cc(CN2CCCC2)on1`, for which the survival is inactive: 83%.
The result for `Cc1ccc(NC(=O)c2cc(S(=O)(=O)NC3CCCCC3)ccc2F)cc1Cl` reads active: -6%.
For `O=C(NC1CCCC1)C(c1ccsc1)N(C(=O)Cc1cccs1)c1ccccc1` (centres undefined), the survival was inactive: 110%.
Take `CCn1nnc2cc(C(=O)Nc3ccc(C)c(Cl)c3)ccc21`: the survival is inactive: 53%.
Regarding `COc1ccc(OC)c(CCNC(=O)c2cnn(-c3ccc(C)cc3C)c2C2CCN(C(=O)OC(C)(C)C)CC2)c1`, the survival is inactive: 88%.
Consider `CCOC(=O)c1c(NC(=O)COc2ccc(C)cc2C(C)(C)C)sc2c1CCC(C)C2` (centres undefined), for which the survival was inactive: 67%.
For `Cc1c(C(=O)N2CCC(C)CC2)c(S(=O)(=O)Nc2cccc(C(F)(F)F)c2)c(C)n1C`, the survival is inactive: 78%.
On to `Cc1nn(S(=O)(=O)c2ccc(C(C)(C)C)cc2)c(C)c1S(=O)(=O)N1CCC(C)CC1`, for which the survival was inactive: 76%.
With `COc1ccc(CNC(=O)Cn2c(=O)ccc3cc(S(=O)(=O)N4CCCC4)ccc32)cc1`, the survival is inactive: 82%.
With `Cc1ccc(Cn2c(CNC(=O)Cc3cccc(C)c3)nc3cccnc32)cc1` the figure was inactive: 71%; with `CC(=O)c1ccc(N2CCN(S(=O)(=O)c3cc(-c4noc(C)n4)ccc3C)CC2)cc1`, inactive: 133%.
Take `COCCN1C(=O)c2oc3ccc(C)cc3c(=O)c2C12C(=O)N(C)c1ccccc12` (centres undefined): the survival is inactive: 82%.
Regarding `COC(=O)c1cc2oc3ccccc3c2n1Cc1nc(-c2cccc(C)c2)oc1C`, the survival was inactive: 72%.
`COc1ccc2[nH]cc(CCNC(=O)c3cnn(-c4ccc(C)cc4)c3C3CCN(C(=O)OC(C)(C)C)CC3)c2c1`: the survival is inactive: 97%.
On to `COCC(=O)Nc1cccc(-c2nc3cccnc3s2)c1`, for which the survival is inactive: 82%.
As for `COc1ccccc1CNC(=O)c1cnc(SC)nc1C`, the survival is inactive: 73%.
Consider `CC(C)N(Cc1ccccc1)C(=O)C1CCCN(c2ncnc3onc(-c4ccc(F)cc4)c23)C1` (centres undefined), for which the survival was inactive: 71%.
With `Cc1cc(-c2ccc(S(=O)(=O)N3CCN(c4ccc(Cl)cc4)CC3)s2)on1` the figure was inactive: 136%.
`COc1ccc(-c2nc3scc(CCNC(=O)c4cccc(Br)c4)n3n2)cc1`: the survival was inactive: 72%.
As to `COc1ccc(NC(=O)c2sc3nc4c(c(-c5ccc(OC)cc5)c3c2N)C(=O)CC(C)(C)C4)cc1`, the survival was inactive: 71%.
`CCOC(=O)c1ccc(N2C(=O)c3[nH]nc(-c4ccc(OCC)cc4)c3C2c2cccs2)cc1` (centres undefined): the survival was inactive: 100%.
With `CC(C)OC(=O)CSc1nnc(-c2ccccc2)n1Cc1ccco1` the figure was inactive: 107%; with `CCOC(=O)c1ccc(NC(=O)CC2Nc3ccccc3NC2=O)cc1` (centres undefined), inactive: 62%.
As for `O=C(Nc1cc(-c2nc3cc(Cl)ccc3o2)ccc1Cl)c1cc([N+](=O)[O-])ccc1N1CCOCC1`, the survival was inactive: 67%.
The result for `Cc1ccc(-c2nnc(Nc3ccc(F)cc3)c3ccccc23)cc1S(=O)(=O)N1CCN(C)CC1` reads inactive: 79%.
For the compound `Cc1ccc(CNCc2cccn2-c2nnc(N3CCCC3)s2)cc1`, the survival is inactive: 75%.
For `O=C(c1ccccc1Cl)N1CCCCC1CCN1CCOCC1` (centres undefined), the survival is inactive: 95%.
With `CCOc1cccc2c1Oc1nc(-c3ccccc3)nc(SCC(=O)Nc3ccc(F)cc3)c1C2` the figure was inactive: 86%; with `CC(C)CC(NC(=O)c1ccco1)C(=O)O` (centres undefined), inactive: 95%; with `O=C(NCCc1ccc(Cl)cc1)c1ccc(CSCc2ccc(Cl)cc2)o1`, inactive: 72%.
For `Clc1ccccc1-c1nnc(SCc2nc(-c3ccccc3)no2)n1-c1ccccc1`, the survival is inactive: 50%.
In the case of `COc1ccc(N2CCN(C(=O)Nc3ccccc3Cl)CC2)cc1`, the survival was inactive: 134%.
Regarding `COc1ccc(Cn2c(CCC(=O)Nc3ccc(OC)c(Cl)c3)nc3cccnc32)cc1`, the survival is inactive: 144%.
With `CCOc1ccc(NC(=O)CCC(=O)N2CCSc3ccccc32)cc1` the figure was inactive: 87%; with `CCCC(=O)n1nc(-c2cccnc2)nc1NCc1ccccc1`, inactive: 83%; with `CCc1ccccc1NC(=O)Cn1c(=O)n(CCc2ccccc2)c(=O)c2ccccc21`, inactive: 106%.
On to `O=C(Nc1ccc2nc(SCC(=O)N3CCOCC3)sc2c1)c1cccc(F)c1`, for which the survival was inactive: 87%.
With `COc1ccc(NS(=O)(=O)c2c(C)nc3scc(C)n3c2=O)cc1`, the survival is inactive: 78%.
For the compound `COc1cccc(NC(=O)CSC2=Nc3ccccc3C3=NC(CC(=O)NCc4ccccc4OC)C(=O)N23)c1` (centres undefined), the survival was inactive: 152%.
Take `CCCCNC(=O)CCSc1nc(-c2ccc3c(c2)OCO3)cc(C(F)(F)F)n1`: the survival is inactive: 85%.
`CCOC(=O)N1CCN(S(=O)(=O)N2CCCC(C(=O)NCc3ccc(OC)cc3OC)C2)CC1` (centres undefined): the survival is inactive: 57%.
Consider `O=c1oc2ccc(Cl)cc2cc1-c1cn2c(n1)sc1ccccc12`, for which the survival is inactive: 123%.
The result for `O=C(NCc1cccnc1)c1c[nH]c2cc3c(cc2c1=O)OCCO3` reads inactive: 105%; that for `COC(=O)c1scc(-c2ccccc2)c1S(=O)(=O)Nc1ccc(C)c(Cl)c1`, inactive: 87%.
The result for `CCOc1ccc(NC(=O)c2c(NCc3cccs3)sc3c2CCCCC3)cc1` reads inactive: 64%; that for `Cc1ccnc2nc(NC(=O)c3ccccc3Cl)nn12`, inactive: 87%.
As to `CCc1ccc2[nH]c(=O)c(CN(Cc3ccco3)C(=O)c3ccccc3)cc2c1`, the survival is inactive: 108%.
Take `Cc1cccc(OCC(=O)N(Cc2ccc(N(C)C)cc2)Cc2ccco2)c1C`: the survival was inactive: 78%.
As to `COc1ccc(C2C=C(c3ccccc3)Nc3nc(NC(=O)/C=C/c4ccccc4OC)nn32)cc1` (centres undefined), the survival was inactive: 75%.
With `CCOC(=O)c1cc2sc(C)cc2n1CC(=O)N1CCCCC1C` (centres undefined) the figure was inactive: 105%.
For `Cc1cccc(N(CC(=O)N(C)Cc2ccccc2)S(=O)(=O)c2ccccc2)c1C`, the survival was inactive: 77%.
